Reference: the supplement of paper PMC9446081
Hit rate of the full screen: of about 39,000 compounds, about 220 (0.56%) showed activity. The list shows a part of the results.
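Note: static incubation at 37 °C against the wild-type strain, values averaged over two biological replicates.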

These compounds were tested on Escherichia coli K-12 BW25113 (assay: relative growth (OD600 normalised to plate interquartile mean) (fraction); higher = less growth inhibition, active = 0.2 or less). Details: 50 µM; LB; incubation time: overnight (16-24 h).
`C[C@H]1CN([C@@H](C)CO)C(=O)c2cc(NC(=O)CCCN(C)C)ccc2O[C@H]1CN(C)Cc1ccccc1` was tested, and the relative growth was inactive: 1. In the case of `Cc1c(N)cncc1C(=O)O`, the relative growth is reported as inactive: 0.993. For `C[C@H](CO)N1C[C@H](C)[C@H](CN(C)CC2CCCCC2)OCCCC[C@H](C)Oc2ccc(NC(=O)Nc3ccc(F)cc3)cc2C1=O`, the relative growth was inactive: 1.01. In the case of `C[C@@H](O)CO`, the relative growth is reported as inactive: 0.996. `C[C@@H]1CN([C@H](C)CO)S(=O)(=O)c2ccc(C#CC3CC3)cc2O[C@H]1CN(C)C(=O)Cc1ccncc1` was tested, and the relative growth was inactive: 1.03. In the case of `Nc1cncc(Cl)n1`, the relative growth is reported as inactive: 0.977. For `C[C@@H]1CN([C@H](C)CO)C(=O)Cc2cc(NS(C)(=O)=O)ccc2O[C@H]1CN(C)Cc1ccc(C(=O)Nc2ccccc2N)cc1`, the relative growth was inactive: 1. `CC(C)NC(=O)N(C)C[C@H]1Oc2ccc(NS(=O)(=O)c3ccc(F)cc3)cc2C(=O)N([C@H](C)CO)C[C@@H]1C` was tested, and the relative growth was inactive: 1. For `COc1cccc(S(=O)(=O)N(C)C[C@@H]2OCc3cn(nn3)CCCC(=O)N([C@@H](C)CO)C[C@H]2C)c1`, the relative growth was inactive: 0.976. `C[C@H]1CN([C@@H](C)CO)C(=O)Cc2cc(NS(=O)(=O)c3cn(C)cn3)ccc2O[C@@H]1CN(C)S(=O)(=O)c1cn(C)cn1` was tested, and the relative growth was inactive: 1. With `Cc1ccc(S(=O)(=O)Nc2ccc3c(c2)C(=O)N([C@@H](C)CO)C[C@H](C)[C@@H](CN(C)C(=O)Cc2ccccc2)OCCCC[C@H](C)O3)cc1` the relative growth was inactive: 1.02. In the case of `C[C@@H]1CCCCO[C@@H](CN(C)C(=O)Nc2ccccc2)[C@@H](C)CN([C@H](C)CO)C(=O)c2cc(NC(=O)NC3CCCCC3)ccc2O1`, the relative growth is reported as inactive: 0.973. `COc1ccc(-c2c(C)oc3ccc(Cl)cc23)cc1` was tested, and the relative growth was inactive: 0.992. For `COc1ccc(S(=O)(=O)N(C)C[C@H]2OCCCC[C@H](C)Oc3ccc(NC(=O)NC4CCCCC4)cc3C(=O)N([C@H](C)CO)C[C@H]2C)cc1`, the relative growth was inactive: 1.06. `C[C@@H]1CN([C@H](C)CO)C(=O)Cc2cc(NS(=O)(=O)c3cccs3)ccc2O[C@@H]1CN(C)Cc1ccc(-c2ccccc2)cc1` was tested, and the relative growth was inactive: 0.988. `N[C@H](C(=O)O)[C@@H](OCc1ccccc1)C(=O)O` was tested, and the relative growth was inactive: 1. `C[C@@H]1CN([C@H](C)CO)C(=O)c2cc(NC(=O)Nc3cccc4ccccc34)ccc2O[C@@H]1CN(C)Cc1ccc(-c2ccccc2)cc1` was tested, and the relative growth was inactive: 1. In the case of `COCCNC(=O)C[C@@H]1CC[C@H]2[C@@H](COC[C@H](O)CN2C(=O)Nc2ccc3c(c2)OCO3)O1`, the relative growth is reported as inactive: 1.01. With `COc1ccc2c3c([nH]c2c1)[C@H](CO)N(CC1CCCCC1)C[C@]13CCN(CC1)C(=O)NC1CCCC1` the relative growth was inactive: 1.04. `Cc1noc(C)c1NC(=O)N(C)C[C@@H]1Oc2ccc(NC(=O)NC(C)C)cc2C(=O)N([C@H](C)CO)C[C@H]1C` was tested, and the relative growth was inactive: 0.987. `C[C@@H]1CN([C@H](C)CO)C(=O)c2cc(NC(=O)c3ccccc3)ccc2O[C@@H](C)CCCCO[C@@H]1CN(C)Cc1ccccc1` was tested, and the relative growth was inactive: 0.999. With `COc1ccc(S(=O)(=O)Nc2ccc3c(c2)C(=O)N([C@H](C)CO)C[C@H](C)[C@@H](CN(C)C(=O)Nc2ccccc2)OCCCC[C@H](C)O3)cc1` the relative growth was inactive: 1.02. `CO[C@@H]1CN(C)C(=O)c2ccc(NS(=O)(=O)c3cn(C)cn3)cc2OC[C@H](C)N(CCC(F)(F)F)C[C@@H]1C` was tested, and the relative growth was inactive: 1.02. With `COc1ccc(-c2cnc3c(c2)C(=O)N([C@H](C)CO)C[C@@H](C)[C@H](CN(C)C(=O)Cc2ccncc2)O3)cc1` the relative growth was inactive: 0.972. With `C[C@H]1CN([C@@H](C)CO)C(=O)Cc2cc(NC(=O)C3CCCCC3)ccc2O[C@@H]1CN(C)Cc1ccc(C(F)(F)F)cc1` the relative growth was inactive: 1.04. In the case of `C[C@@H]1CN([C@H](C)CO)C(=O)Cc2cc(NS(=O)(=O)c3ccccc3)ccc2O[C@H]1CN(C)S(=O)(=O)c1ccccc1`, the relative growth is reported as inactive: 0.993. With `NNC(=O)Oc1ccccc1` the relative growth was inactive: 0.945. With `COc1ccc(NC(=O)N(C)C[C@@H]2OCCCC[C@H](C)Oc3ccc(NS(=O)(=O)c4ccc(Cl)cc4)cc3C(=O)N([C@H](C)CO)C[C@@H]2C)cc1` the relative growth was inactive: 1. With `CCNC(=O)[C@@H]1[C@@H](CO)[C@@H]2Cn3c(ccc(-c4ccc(OC)cc4)c3=O)[C@H]1N2S(C)(=O)=O` the relative growth was inactive: 1.03. With `Cc1nc2sccn2c(=O)c1CCN1CCC(=C(c2ccc(F)cc2)c2ccc(F)cc2)CC1` the relative growth was inactive: 1.07. For `C[C@@H]1CN([C@@H](C)CO)C(=O)c2cc(NS(C)(=O)=O)ccc2O[C@H]1CN(C)C(=O)Nc1ccc(C(F)(F)F)cc1`, the relative growth was inactive: 0.919. For `COC(=O)N[C@H](C(=O)N1CCC[C@H]1c1nc(-c2ccc(-c3ccc(-c4c[nH]c([C@@H]5CCCN5C(=O)[C@@H](NC(=O)OC)C(C)C)n4)cc3)cc2)c[nH]1)C(C)C`, the relative growth was inactive: 1.01. `CN(C)CCCNC(=O)C[C@H]1CC[C@H]2[C@H](COc3ccc(NC(=O)NC4CCCC4)cc3C(=O)N2C)O1` was tested, and the relative growth was inactive: 0.997. `O=C(CCCCCCC(=O)N/N=C/[C@H](O)[C@H](O)[C@@H](O)[C@@H](O)CO)NO` was tested, and the relative growth was inactive: 0.999. In the case of `C[C@H](CO)N1C[C@H](C)[C@H](CN(C)Cc2ccc(Cl)c(Cl)c2)Oc2ccc(NC(=O)Nc3ccc4c(c3)OCO4)cc2CC1=O`, the relative growth is reported as inactive: 1.02. In the case of `C[C@@H]1CCCCO[C@@H](CN(C)C(=O)NC2CCCCC2)[C@H](C)CN([C@@H](C)CO)C(=O)c2cc(NC(=O)Nc3ccc4c(c3)OCO4)ccc2O1`, the relative growth is reported as inactive: 1.01. `CCOC(=O)C1=C(C)NC(C)=C(C(=O)OC)C1c1cccc(Cl)c1Cl` (configuration not stated) was tested, and the relative growth was inactive: 1.07. In the case of `C[C@@H]1CN([C@H](C)CO)C(=O)c2cccc(NC(=O)C3CCOCC3)c2O[C@@H]1CN(C)S(=O)(=O)c1ccc(F)cc1`, the relative growth is reported as inactive: 0.923. In the case of `CC(C)NC(=O)N(C)C[C@@H]1Oc2ccc(NC(=O)CCN3CCOCC3)cc2C(=O)N([C@@H](C)CO)C[C@@H]1C`, the relative growth is reported as inactive: 1. With `COc1ccc(S(=O)(=O)N(C)C[C@@H]2Oc3ccc(NS(=O)(=O)c4ccccc4)cc3C(=O)N([C@H](C)CO)C[C@H]2C)cc1` the relative growth was inactive: 1.03. `C[C@@H]1CN([C@@H](C)CO)C(=O)c2cc(NS(=O)(=O)c3ccc(Cl)cc3)ccc2O[C@@H]1CN(C)S(=O)(=O)c1cn(C)cn1` was tested, and the relative growth was inactive: 1.02. In the case of `C[C@H](CO)N1C[C@H](C)[C@@H](CN(C)S(=O)(=O)c2cn(C)cn2)Oc2ccc(NC(=O)C3CC3)cc2CC1=O`, the relative growth is reported as inactive: 1. In the case of `CCNC(=O)c1coc(C)n1`, the relative growth is reported as inactive: 1. For `COc1cccc(S(=O)(=O)Nc2ccc3c(c2)[C@H]2C[C@@H](CC(=O)NCc4ccccc4F)O[C@@H](CO)[C@H]2O3)c1`, the relative growth was inactive: 1.01. With `C[C@H](CO)N1C[C@H](C)[C@@H](CN(C)C(=O)C2CCCCC2)OCCCC[C@H](C)Oc2ccc(NC(=O)Nc3ccc4c(c3)OCO4)cc2C1=O` the relative growth was inactive: 1.02. `C[C@@H]1CN([C@@H](C)CO)C(=O)c2cc(C3=CCCC3)cnc2O[C@H]1CN(C)C(=O)Nc1ccc(C(F)(F)F)cc1` was tested, and the relative growth was inactive: 0.978. For `C[C@@H]1CCCCO[C@H](CN(C)Cc2ccc(Cl)c(Cl)c2)[C@@H](C)CN([C@H](C)CO)C(=O)c2cc(NS(C)(=O)=O)ccc2O1`, the relative growth was inactive: 0.979. In the case of `C[C@@H]1CN([C@@H](C)CO)C(=O)c2cccc(NC(=O)c3cnccn3)c2O[C@@H]1CN(C)C(=O)Nc1ccc2c(c1)OCO2`, the relative growth is reported as inactive: 1.01. In the case of `C[C@@H]1CN([C@H](C)CO)C(=O)c2cc(NS(=O)(=O)c3cn(C)cn3)ccc2O[C@@H]1CN(C)S(C)(=O)=O`, the relative growth is reported as inactive: 0.987. `Cc1noc(C)c1NC(=O)N(C)C[C@H]1Oc2c(NC(=O)NC(C)C)cccc2C(=O)N([C@@H](C)CO)C[C@@H]1C` was tested, and the relative growth was inactive: 1.01. In the case of `C[C@@H]1CN([C@H](C)CO)C(=O)c2cc(NC(=O)c3ccccc3)ccc2O[C@@H](C)CCCCO[C@H]1CN(C)C(=O)Nc1ccc2c(c1)OCO2`, the relative growth is reported as inactive: 0.99. In the case of `CC(C)NC(=O)Nc1ccc2c(c1)C(=O)N([C@H](C)CO)C[C@H](C)[C@H](CN(C)CC1CCCCC1)OCCCC[C@@H](C)O2`, the relative growth is reported as inactive: 0.955. `C[C@H]1CN([C@@H](C)CO)C(=O)c2cc(NC(=O)Cc3ccccc3)ccc2O[C@H]1CN(C)Cc1ccc(C(F)(F)F)cc1` was tested, and the relative growth was inactive: 1.02. With `C[C@@H]1CCCCO[C@H](CN(C)Cc2ccccc2)[C@@H](C)CN([C@@H](C)CO)C(=O)c2cc(NC(=O)C3CCCCC3)ccc2O1` the relative growth was inactive: 1.02. `C[C@@H]1CN([C@H](C)CO)C(=O)Cc2cc(NS(=O)(=O)c3ccc(F)cc3)ccc2O[C@@H]1CN(C)S(=O)(=O)c1ccc(F)cc1` was tested, and the relative growth was inactive: 1. In the case of `C[C@H](CO)N1C[C@H](C)[C@@H](CN(C)Cc2cccc(C(F)(F)F)c2)OCc2ccccc2-c2ccccc2C1=O`, the relative growth is reported as inactive: 1.1. For `COc1ccccc1-c1ccc2c(c1)O[C@@H](CN(C)C(=O)c1cccnc1)[C@H](C)CN([C@H](C)CO)S2(=O)=O`, the relative growth was inactive: 0.988. In the case of `C[C@@H]1CN([C@@H](C)CO)C(=O)c2cc(C#CCc3ccccc3)cnc2O[C@H]1CN(C)C(=O)C1CCOCC1`, the relative growth is reported as inactive: 1.02. In the case of `O=C(O)[C@H]1CCCN1C(=O)c1cccnc1`, the relative growth is reported as inactive: 1.04. With `COC(=O)/C=C/C(=O)OC` the relative growth was inactive: 1. With `C[C@H]1CN([C@@H](C)CO)C(=O)CCCn2cc(nn2)CO[C@H]1CN(C)C(=O)Nc1ccc(C(F)(F)F)cc1` the relative growth was inactive: 0.955. In the case of `O=C(Nc1cccc2cccnc12)[C@H]1[C@@H](c2ccc(Br)cc2)CC(=O)N1C(=O)OCc1ccccc1`, the relative growth is reported as inactive: 0.945.
